The supplement of paper PMC3334620
The full ranking holds about 33,000 sequences; the median of “E-score (-0.5 to 0.5)” is about -0.056, and the highest 2% start at about 0.38. This is one part of the list.

The sequences below were run against Stb4 (UniProt P50104) (assay: PBM E-score (8-mer binding enrichment) (E-score (-0.5 to 0.5)); higher = stronger / more preferred TF binding; most listed sequences are background and not binding sites). Settings: protein concentration: 200 nM; construct: GST-DNA-binding domain.
How it was run: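 Bound GST-tagged yeast transcription factors, applied at about 100-200 nM to double-stranded universal all-10-mer Agilent arrays, were detected with fluorescent anti-GST. Scans were normalised with masliner. A modified Wilcoxon-Mann-Whitney statistic, the E-score, was assigned to each ungapped eight-base word pooled with its reverse complement by the Universal PBM Analysis Suite.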

Sequence	PBM E-score
CATGACAG	-0.199
ATAAAACC	0.0449
CTACGCGA	-0.0663
AACTTCAA	-0.0236
ATAAGAGA	0.132
GTGAAATA	-0.0312
GGACACCC	0.0635
AAATGAGT	0.104
ACGAAAGT	0.0657
GCAAGCGC	-0.0232
AACCAATC	0.0662
AAGCGAGC	0.0586
TGGACCCA	-0.154
AGATACAT	-0.155
TCACGGGA	0.189
TGCGCCCA	-0.208
TGACAAAA	-0.143
ACCCCTCA	-0.119
GGAAAGTA	0.172
CCCGTCAG	0.124
AACTGTGA	0.0538
CAGCTTAA	-0.0768
GAACCTGA	-0.0761
ACACGACT	-0.114
GGACAACA	-0.216

Sequence	PBM E-score
ACCTTCGA	-0.171
CATCGCAA	-0.218
GTGCTGTA	-0.141
GAGACCGC	-0.0808
CGCTTGTC	0.0319
CATGAATC	-0.184
CCAGCATC	-0.0776
AATCGTAA	-0.17
CTACCCCA	-0.148
AGCAGCGG	0.162
ACCGCTCT	-0.0173
CTGATCTA	-0.0129
ATAAAGAA	-0.103
ACTCCGAA	0.385
AAAAGGTA	-0.0677
CATGTAAA	-0.232
ACTATTAG	0.0221
GGAAGACA	0.0955
AATACCAT	-0.115
TAGTCATA	-0.161
TACCCGGA	0.415
CCGAGTCA	0.381
GATAAAAC	0.214
CCAATGGC	-0.0284
AGTCAGCC	-0.161

Sequence	PBM E-score
AGGAGTGG	-0.161
CACTAGGC	-0.135
CACCAAAA	-0.274
TAAGGGCA	-0.00253
CAATCATA	-0.00184
ATCGGTAG	0.277
ACCAGGGC	-0.221
ATTCAAGC	-0.0456
AACACTGC	0.0726
ACTACGGA	0.266
TCTGGTCA	-0.191
AAGTTCCA	-0.0508
ATAGTTTG	-0.153
CAAGGGCC	-0.161
AGCCACGC	-0.132
CAAATGAA	-0.136
TCCCCCCA	-0.196
CCCGCAGA	0.158
AATCCTAG	-0.0711
GCCTTGAA	-0.312
ATGCGAGG	-0.224
GCGGTTTA	-0.0154
ATGCGATA	-0.041
AAAACCCC	0.0806
TCTACACA	-0.0869

Sequence	PBM E-score
CCCGGTCG	0.267
ATGGCTCC	-0.0525
AAACGTTC	-0.0502
AGCTGAGA	-0.234
AGCTAGAA	-0.209
GGACGACC	-0.0611
CAGCAACG	-0.0727
AAATTGCC	0.19
TAAAGTTA	-0.0583
GAGGCTCC	0.00692
CCGCGACC	0.0824
TACTAGAA	-0.0607
GGTTAGAA	-0.00133
ATCTCGTA	-0.154
GCTAGCTA	-0.0957
CGAGGTGC	0.299
AACGGAGT	0.197
ACGTAAGC	-0.163
CGAAATAC	0.141
GTTGCGTA	0.0526
AAGCTATA	-0.164
CAAGGGTC	-0.0149
GGCTCTAA	-0.0213
AGCAAATA	-0.192
CAGCCATG	-0.284

Sequence	PBM E-score
CGTAACGC	0.0075
CCCGCTTA	0.0362
GCAGCTCC	0.0859
AGGTCAAG	-0.101
GGTATGAA	-0.0419
AAGATTGC	0.0143
CTGCGTGA	-0.179
GGGTTGCA	-0.057
CGGTATTC	0.213
CCAGATAG	-0.0744
AAAGTTAT	-0.0457
ATGGAGAC	-0.114
ATTATATC	0.055
CATGCACC	-0.135
CTCGAGTC	-0.0623
GAGCCCAA	-0.16
CCCACCGA	0.0946
GGCAGATA	0.234
GCCGTCGC	-0.0773
CTATCTGA	-0.228
CGATTTCC	0.255
CAGGTCAC	-0.283
ACGCTTTA	-0.187
TAATCTGA	-0.201
AGTAACTC	-0.0281

Sequence	PBM E-score
GTCCCACA	0.0892
AACTTGAG	-0.166
ATGTGCTA	0.0962
CGACCATC	-0.0396
CATCCACA	-0.108
ACGCTAAG	-0.354
GGACAGGA	-0.0503
ATCACGAT	-0.132
GTAGTACA	-0.23
GTGTGAAA	0.0372
ATCGAAGG	-0.15
CTTTTATC	0.0869
GAAACTCC	0.0704
ATTTCGAA	-0.0575
CTTGTCCC	0.174
GGTGAAAC	0.108
AGTAAGAC	-0.27
GTACGAGA	-0.0312
TCAGATCA	-0.235
ACATGACC	-0.0942
GGTTAAGA	-0.0248
ACGCAGAG	-0.234
CAGGCGAC	-0.0912
AATGCTAA	-0.0473
AGCAAAGG	-0.175

Sequence	PBM E-score
GGCGATTA	0.124
AGTGTGGG	-0.0891
GCTCCTCA	-0.0987
ATAATTTC	0.092
AGTCAGTA	0.0306
GTGAGACA	0.0391
ATCCTATC	-0.0255
GCCAAACC	0.0652
ATAGGAAA	-0.0283
AGTCCTTC	-0.0651
CCGAAGAA	0.402
ACGAACCC	0.123
TATACTCA	-0.174
ACTCAACC	-0.0648
GCCGGCCA	0.264
ACCCCAAT	-0.207
GAGCTAAC	0.13
AGTCAGTC	-0.166
AATTCCGG	0.358
CCCATCCA	-0.151
CGATGCCG	0.263
CGAGCGGC	0.272
CAAAGCAA	-0.0355
AGTGCTAC	-0.233
CAAGCTGC	-0.129

Sequence	PBM E-score
CCAAGGAC	-0.18
CAATAACA	-0.101
AGAATTGC	0.0152
TGAGCAAA	-0.0867
AGAACGCA	-0.176
TCGATCAA	-0.179
AGTTGACA	-0.174
ACCGCATA	0.0903
CCGGCGTC	0.251
CTCGCGTC	-0.0112
CAATATAC	-0.0523
ACACCGAT	0.00608
ACAGACAC	-0.0573
GCTCATCA	-0.0769
CCTACATC	-0.0198
GCCATCCC	-0.0258
CGTGCTTA	-0.0565
ACTATTCT	-0.076
ATGGTCCA	-0.00392
ATAAGGTG	-0.0667
GACATCGC	0.136
TCGGACAA	0.352
TTAGATAA	-0.126
CGTGCATA	-0.0567
GAATTATC	-0.0405

Sequence	PBM E-score
CCCCATCC	0.195
CACAAAAC	-0.0837
AATCACGA	-0.084
CGGTTTCC	0.309
CAACAGTC	-0.0801
CTCGTATC	-0.184
AGGTACAT	-0.185
CCCTAGGA	-0.129
TCTGTCAA	-0.139
CTGTCTGA	-0.117
ATGTCCGC	-0.00468
CTCGTGCA	-0.0534
CGGAATCC	0.324
CGCGATAC	-0.0174
AATCCATA	-0.085
GCTTACTA	-0.15
ACAACGGG	0.0871
CCACGTCG	0.0984
AGAATCAC	0.0235
